Reference: PMC9911399, “Two distinct binding modes provide the RNA-binding protein RbFox with extraordinary sequence specificity”
Numbering of substitutions follows the chain as printed; changes in the protein carry UniProt numbers. This is one part of the list.

T1: RBFOX1 RRM RbFoxmut (Fox-RRM*) (Homo sapiens, UniProt Q9NWB1 109-208, R118D;E147R;N151S;E152T)
T1 sequence: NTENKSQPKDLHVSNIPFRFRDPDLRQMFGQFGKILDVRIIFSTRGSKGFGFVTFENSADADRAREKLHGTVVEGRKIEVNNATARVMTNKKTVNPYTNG

B1: UGGGCAG (DNA:RNA)
RNA: GGGAGACCGGAAUUCAGAUUGUCCUGGGCAGUUAAAUCCCGUCGUAGCCACCA
DNA 1: CAATCTGAATTCCGGTCTCCC
DNA 2: TGGTGGCTACGACGGGATT
B2: UACAGAG (DNA:RNA)
RNA: B1 RNA with G26A, G27C, G28A, C29G
DNA 1: CAATCTGAATTCCGGTCTCCC
DNA 2: TGGTGGCTACGACGGGATT
B3: UCGCAAU (DNA:RNA)
RNA: B1 RNA with G26C, G28C, C29A, G31U
DNA 1: CAATCTGAATTCCGGTCTCCC
DNA 2: TGGTGGCTACGACGGGATT
B4: UAUGCCC (DNA:RNA)
RNA: B1 RNA with G26A, G27U, A30C, G31C
DNA 1: CAATCTGAATTCCGGTCTCCC
DNA 2: TGGTGGCTACGACGGGATT
B5: CAUGCUU (DNA:RNA)
RNA: B1 RNA with U25C, G26A, G27U, A30U, G31U
DNA 1: CAATCTGAATTCCGGTCTCCC
DNA 2: TGGTGGCTACGACGGGATT
B6: UGUGCGA (DNA:RNA)
RNA: B1 RNA with G27U, A30G, G31A
DNA 1: CAATCTGAATTCCGGTCTCCC
DNA 2: TGGTGGCTACGACGGGATT
B7: UUCAUCA (DNA:RNA)
RNA: B1 RNA with G26U, G27C, G28A, C29U, A30C, G31A
DNA 1: CAATCTGAATTCCGGTCTCCC
DNA 2: TGGTGGCTACGACGGGATT
B8: GCCCUAG (DNA:RNA)
RNA: B1 RNA with U25G, G26C, G27C, G28C, C29U
DNA 1: CAATCTGAATTCCGGTCTCCC
DNA 2: TGGTGGCTACGACGGGATT
B9: UAGCUUU (DNA:RNA)
RNA: B1 RNA with G26A, G28C, C29U, A30U, G31U
DNA 1: CAATCTGAATTCCGGTCTCCC
DNA 2: TGGTGGCTACGACGGGATT
B10: GACGUAU (DNA:RNA)
RNA: B1 RNA with U25G, G26A, G27C, C29U, G31U
DNA 1: CAATCTGAATTCCGGTCTCCC
DNA 2: TGGTGGCTACGACGGGATT
B11: AUCGCUU (DNA:RNA)
RNA: B1 RNA with U25A, G26U, G27C, A30U, G31U
DNA 1: CAATCTGAATTCCGGTCTCCC
DNA 2: TGGTGGCTACGACGGGATT
B12: GUCACGC (DNA:RNA)
RNA: B1 RNA with U25G, G26U, G27C, G28A, A30G, G31C
DNA 1: CAATCTGAATTCCGGTCTCCC
DNA 2: TGGTGGCTACGACGGGATT
B13: ACUGCGC (DNA:RNA)
RNA: B1 RNA with U25A, G26C, G27U, A30G, G31C
DNA 1: CAATCTGAATTCCGGTCTCCC
DNA 2: TGGTGGCTACGACGGGATT
B14: ACGUGUU (DNA:RNA)
RNA: B1 RNA with U25A, G26C, G28U, C29G, A30U, G31U
DNA 1: CAATCTGAATTCCGGTCTCCC
DNA 2: TGGTGGCTACGACGGGATT
B15: UUCUAAG (DNA:RNA)
RNA: B1 RNA with G26U, G27C, G28U, C29A
DNA 1: CAATCTGAATTCCGGTCTCCC
DNA 2: TGGTGGCTACGACGGGATT
B16: UACCGUA (DNA:RNA)
RNA: B1 RNA with G26A, G27C, G28C, C29G, A30U, G31A
DNA 1: CAATCTGAATTCCGGTCTCCC
DNA 2: TGGTGGCTACGACGGGATT
B17: AAGAGAG (DNA:RNA)
RNA: B1 RNA with U25A, G26A, G28A, C29G
DNA 1: CAATCTGAATTCCGGTCTCCC
DNA 2: TGGTGGCTACGACGGGATT
B18: UGGGCGU (DNA:RNA)
RNA: B1 RNA with A30G, G31U
DNA 1: CAATCTGAATTCCGGTCTCCC
DNA 2: TGGTGGCTACGACGGGATT
B19: UUCUACA (DNA:RNA)
RNA: B1 RNA with G26U, G27C, G28U, C29A, A30C, G31A
DNA 1: CAATCTGAATTCCGGTCTCCC
DNA 2: TGGTGGCTACGACGGGATT
B20: UGCUAGU (DNA:RNA)
RNA: B1 RNA with G27C, G28U, C29A, A30G, G31U
DNA 1: CAATCTGAATTCCGGTCTCCC
DNA 2: TGGTGGCTACGACGGGATT

Target: T1, RBFOX1 RRM RbFoxmut (Fox-RRM*)
Test: EMSA; HiTS-Eq, 1 nM pool, 10 min; buffer printed only for the single-RNA assays: 10 mM Tris pH 7.5, 150 mM NaCl, 3.4 mM EDTA, 0.001% NP-40, 30 C
Conditions: tags: His6 N-terminal (pET28a); label: 5' 32P
Method in brief: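 These values rest on relative association constants, computed from read-count changes of each RNA species versus the control reaction and normalised to the cognate motif. Reads came from free RNA recovered by 8% native PAGE after purified RbFox RRM (wild type or mutant) at increasing concentrations was equilibrated for 10 min in 50 µL with 1 nM of a 5′-radiolabelled pool with 7 randomized nucleotides and DNA-annealed flanks.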

Binder	binding signal
B1	0.0885 KA relative to UGCAUGU
B2	0.0598 KA relative to UGCAUGU
B3	0.0593 KA relative to UGCAUGU
B4	0.08 KA relative to UGCAUGU
B5	0.121 KA relative to UGCAUGU
B6	0.122 KA relative to UGCAUGU
B7	0.0906 KA relative to UGCAUGU
B8	0.0894 KA relative to UGCAUGU
B9	0.0889 KA relative to UGCAUGU
B10	0.118 KA relative to UGCAUGU
B11	0.101 KA relative to UGCAUGU
B12	0.0858 KA relative to UGCAUGU
B13	0.126 KA relative to UGCAUGU
B14	0.132 KA relative to UGCAUGU
B15	0.128 KA relative to UGCAUGU
B16	0.127 KA relative to UGCAUGU
B17	0.0924 KA relative to UGCAUGU
B18	0.182 KA relative to UGCAUGU
B19	0.0886 KA relative to UGCAUGU
B20	0.14 KA relative to UGCAUGU
